Results on one substance are retold here after patent US7691969B2, “Isolated GRP94 ligand binding domain polypeptide and nucleic acid encoding same, crystalline form of same, and screening methods employing same” (Duke University, priority 2001, dated 2010).

The target in this test is T1, GRP94 (Sus scrofa, UniProt Q29092).
T1 construct: GRP94 was purified from porcine pancreas rough microsomes; from tissue; host or cells: porcine pancreas rough microsomes (lumenal contents)
The format is biochemical, porcine. To be noted: bis-ANS treated GRP94; ten-fold molar excess [125I]-VSV8, 30 min 37° C.

T1 sequence (Q29092 22-804): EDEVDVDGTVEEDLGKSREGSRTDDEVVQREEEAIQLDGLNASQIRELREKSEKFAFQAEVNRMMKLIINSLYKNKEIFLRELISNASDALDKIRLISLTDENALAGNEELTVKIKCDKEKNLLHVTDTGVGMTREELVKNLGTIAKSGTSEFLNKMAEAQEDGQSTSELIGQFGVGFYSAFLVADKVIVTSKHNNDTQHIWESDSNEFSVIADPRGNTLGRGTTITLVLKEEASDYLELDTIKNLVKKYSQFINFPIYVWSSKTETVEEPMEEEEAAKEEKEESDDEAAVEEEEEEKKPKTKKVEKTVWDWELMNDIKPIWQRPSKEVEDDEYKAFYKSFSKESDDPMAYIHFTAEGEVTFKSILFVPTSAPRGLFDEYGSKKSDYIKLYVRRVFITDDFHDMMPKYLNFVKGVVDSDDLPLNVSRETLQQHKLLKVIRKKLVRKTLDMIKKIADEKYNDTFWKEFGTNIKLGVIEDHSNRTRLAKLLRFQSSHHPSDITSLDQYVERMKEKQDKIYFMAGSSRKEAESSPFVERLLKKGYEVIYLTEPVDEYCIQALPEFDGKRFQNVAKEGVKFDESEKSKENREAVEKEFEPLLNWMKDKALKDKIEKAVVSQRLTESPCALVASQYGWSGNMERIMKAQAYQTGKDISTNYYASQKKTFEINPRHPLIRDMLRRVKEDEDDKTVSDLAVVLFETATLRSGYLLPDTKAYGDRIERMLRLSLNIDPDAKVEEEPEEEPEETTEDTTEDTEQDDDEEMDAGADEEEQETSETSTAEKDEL

Turning to “4,4′-dianilino-1,1-binaphthyl-5,5-disulfonic acid [bis-ANS]”, the “stimulation of GRP94 peptide binding activity” value is “approximately a four to five-fold stimulation over native protein”.
